Several values for one entry are separate records, joined by “and”; a condition that tells them apart may be missing. Identical values can stand only once.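 All cell lines were grown in 96-well plates and treated with compound for 48 hours. GI50 marks 50% less growth. TGI: total growth inhibition.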 Bounds are passed on as bounds.

This experiment concerns NCI-H322M lung. Put plainly: NCI anticancer screen, dose series, 48 h.
As for `COC(=O)C1=C(C(=O)OC)C2(OC(C)=O)c3ccccc3-c3ccccc3C12` (configuration not stated), the TGI worked out at 38.3 µM.
The compound `COc1cc2c(c(C)c1O)[C@H]1COc3ccccc3[C@H]1O2` gave a TGI of more than 100 µM.
For the compound `NCCCNc1nc2ccccc2c2c(=O)c3cc(C(F)(F)F)ccc3sc12`, the GI50 is 1.61 µM and the TGI worked out at 2.96 µM.
As to `C=C1C[C@](OC)([C@H](O)C(=O)N[C@@H](OC)[C@@H]2C[C@@H](O)C(C)(C)[C@@H](C[C@@H](COC)OC)O2)O[C@H](C)[C@@H]1C`, the GI50 is 0.00141 µM and the TGI amounted to 0.00406 µM.
As for `CCOC(=O)CCC(NC(=O)c1ccc(Oc2nc3ccc(C(F)(F)F)cc3nc2-c2ccccc2)cc1)C(=O)OCC` (configuration not stated), the TGI is more than 100 µM.
Consider `COc1ccc(/C(Cl)=C(\C=O)c2ccc([N+](=O)[O-])cc2)cc1OC`, for which the TGI was found to be 43.7 µM.
With `NC(=NCCCOc1ccc(Cl)cc1)Nc1ccc(Cl)cc1`, the GI50 is 3.36 µM and the TGI was determined as 13.1 µM.
The compound `CN(NC(=O)CCCl)C1=NCCN1` showed a TGI of more than 100 µM.
Turning to `CC(C)(C)[Si](C)(C)OCC1OC(n2cnc3c(NC(=O)c4ccccc4)ncnc32)CC1O` (configuration not stated), the TGI was more than 100 µM.
Regarding `COc1cc(C(=O)/C=C/c2cc(C(=O)c3cc(OC)c(OC)c(OC)c3)ccc2OC)ccc1N`, the GI50 was 1.8 µM and the TGI was found to be 6.32 µM.
Compound `CSc1cnn(CCC#N)c(=O)n1` displayed a TGI of more than 100 µM.
Still for that read-out and setting: next, `CCCC/C=C/C1Cc2ccccc2CN1S(=O)(=O)c1ccc(C)cc1` (configuration not stated): more than 100 µM; `CSC(C1c2ccccc2N(C)C2=NC(=O)N(C)C(=O)C21Cl)S(=O)(=O)c1ccc(C)cc1` (configuration not stated): more than 100 µM.
The same measure, in the same setting: under `C/C(=N\NC(=O)c1ccncc1)c1ccc2ccccc2c1O` stands more than 100 µM.
As for `Brc1ccc(-c2nnc(-c3nn(-c4ccccc4)c4nc5ccccc5nc34)o2)cc1`, the TGI was more than 100 µM.
In turn, `O=C/C(=C(/Br)I)c1ccccc1` displayed a TGI of 28.8 µM.
Still for that read-out and setting: next, `Clc1ccc(Oc2ccc(N=Cc3ccc(Cl)cc3Cl)cc2Cl)cc1`: more than 100 µM.
As to `CC(C)CCOc1ccc(-c2n[nH]c(C(F)(F)F)c2-c2cncc(C#N)c2)c(O)c1`, the GI50 was 2.7 µM and the TGI was found to be 13.2 µM.
`O=[N+]([O-])c1cccc2nc3ccccc3c(NCCc3cccc[n+]3[O-])c12` had a TGI of 0.723 µM.
`O=C(/C=C/c1ccc(Cl)cc1)Oc1ccc(/C=C2\CCCCC2=O)cc1` returned a TGI of more than 100 µM.
`O=C1Nc2cccc(Cl)c2/C1=C\c1c(Cl)nc2sccn12`: the TGI was more than 100 µM.
Consider `CCCCc1c2c(nc3c1CCCC3O)/C(=C/c1ccccc1)CCC2` (configuration not stated), for which the TGI is more than 100 µM.
Consider `O=P(Oc1ccccc1)(Oc1ccccc1)Oc1c[nH]c2ccccc12`, for which the TGI is 35.9 µM.
For `COc1cc(CCCOC(=O)/C=C/c2ccc(O)c(O)c2)cc(O)c1O`, the TGI was more than 100 µM.
Still for that read-out and setting: under `CC(=O)Oc1cc(OC(C)=O)c2c(=O)c3ccccc3[nH]c2c1` stands more than 100 µM.
Consider `COC1=CC(=O)[C@H]2[C@H](C)C(c3ccccc3)[C@@]2(C)C1=O` (some centres not stated), for which the TGI was more than 100 µM.
For the compound `NS(=O)(=O)c1cc2c(cc1Cl)NC(Cc1ccccc1)NS2(=O)=O` (configuration not stated), the TGI is more than 100 µM.
The same measure, in the same setting: under `CC(=O)OC1CC(n2cc(F)c(=O)[nH]c2=O)OC1CO` (configuration not stated) stands more than 100 µM.
Same read-out and setting: next, `CCCN(CCCC(NC(C)=O)C(=O)NCc1ccccc1)C(=O)NC` (configuration not stated): more than 100 µM.
`CCNCC(=O)O[C@]1(CC)C(=O)OCc2c1cc1n(c2=O)Cc2cc3ccccc3nc2-1` returned a TGI of 11 µM.
As for `C=C(C)[C@@H]1CC[C@]2(C)[C@H](C(=O)C=C3[C@@H]4C[C@](C)(C(=O)N5CCN(C)CC5)CC[C@]4(C)CC[C@]32C)[C@@]1(C)CCC#N`, the GI50 was 8.67 µM and the TGI was 15.6 µM.
Compound `CC(OC(=O)NCn1cc(-c2ccccc2)nn1)c1ccccc1` (configuration not stated) gave a TGI of more than 100 µM.
`COc1cc(C2C(Cl)C(=O)N2NC(=O)c2ccccc2O)ccc1O` (configuration not stated) returned a TGI of more than 100 µM.
`O=c1cc(N2CCOCC2)[nH]c(=O)n1-c1cccc(C(F)(F)F)c1` returned a TGI of more than 100 µM.
On to `COc1ccc(NC(=O)n2nc(N)c3ccccc32)cc1OC`, for which the GI50 was more than 100 µM and the TGI is more than 100 µM.
Consider `CC(=O)c1c(C(F)(F)F)n([O-])c2ccc(Cl)cc2[n+]1=O`, for which the GI50 is 11.9 µM and the TGI was 30.5 µM.
As for `C[C@H](Nc1c(O)c2c(c(O)c1Cl)C(=O)C=CC2=O)C(=O)Nc1ccc([N+](=O)[O-])cc1`, the TGI was determined as 5.45 µM.
Same read-out and setting: next, `CC1(C)CC(=O)C2=C(C1)c1c(ccc3ccccc13)NC2c1cn(Cc2ccc(Cl)cc2)c2ccccc12` (configuration not stated): more than 100 µM.
As to `CN(C)c1ccc(N=Cc2c([O-])ccc3ccccc23)cc1.[C-]#[O+].[C-]#[O+].[Ir]`, the GI50 was 27.2 µM and the TGI was determined as 89.1 µM.
Regarding `CCOC(=O)C(=O)Nc1ccc(C)cc1C`, the TGI is more than 100 µM.
With `OCCCN=NNc1ccc(-c2nc3ccccc3[nH]2)cc1`, the GI50 was 15.5 µM and the TGI is 45.9 µM.
`CC1(C)N=C(C(N)=O)c2ncn(-c3ccccc3)c2N1` had a TGI of more than 100 µM.
On the same count and under the same terms, under `CCSCC(N)C(=O)O` (configuration not stated) stands more than 100 µM.
On to `CC1/C=C/C=C/C=C/C=C/C=C/C=C/C=C/C(O[C@@H]2O[C@H](C)[C@H](O)[C@@H](O)[C@@H]2N)CC(O)C(C(=O)O)C(O)CC(=O)CC(O)CC(O)CC(O)CC(=O)CCCC(=O)CC(=O)OC1C(C)CC(C)C(O)CC(=O)c1ccc(N)cc1` (some centres not stated), for which the GI50 was 0.0568 µM and 0.233 µM; the TGI was 0.112 µM and 0.663 µM.
Regarding `Cc1cn(C2CCC(/C=N\O)O2)c(=O)[nH]c1=O` (configuration not stated), the TGI was more than 100 µM.
Compound `COC(=O)C(O)P(=O)(OC)OC` (configuration not stated) showed a TGI of more than 100 µM.
Regarding `COc1ccc(C(=O)c2ccc(OC)c(OC)c2OC)cc1`, the GI50 was 7.72 µM and the TGI was more than 100 µM.
With `CC(=O)C(=[N+]=[N-])C(=O)OC(C)(C)C#N`, the TGI was more than 10 µM.
Turning to `N#Cc1c(-c2ccco2)cc(-c2ccc(NCc3nc4ccccc4[nH]3)cc2)nc1N`, the TGI is more than 100 µM.
Take `COc1ccc(C2C3C(=O)C=CC(=O)C3[C@@H]2C)cc1OC` (some centres not stated): the TGI was more than 100 µM.
The compound `COc1ccc(/C=C2\CCCCC2=O)cc1` showed a TGI of more than 100 µM.
Take `CC1=C2c3c(C)ccc4ccc(C)c(c34)C2(O)C(C)C1=O` (configuration not stated): the TGI is more than 100 µM.
Still for that read-out and setting: next, `CC1=C2C(=O)[C@H]3[C@@H](CC=C4C[C@@H](O)CC[C@@]43C)[C@@H]2CC[C@]12O[C@@H]1C[C@H](C)CN[C@H]1[C@H]2C`: more than 62.5 µM; `CC(C)(C)N(Cc1ccc2c(c1)OCO2)C(=O)/C=C\S(=O)c1ccccc1` (configuration not stated): 24.5 µM.
Same read-out and setting: under `C[C@]12CCC[C@H](Cl)C1(O)C[C@H](C(=O)O)CC2` (some centres not stated) stands more than 100 µM.
For the compound `Cc1cccc2c1Oc1cc(Cl)ccc1C2NC(=O)CCN1CCN(CCO)CC1` (configuration not stated), the TGI is 32 µM.
Take `COCC1CCCN1c1ccc(/C=C(/C#N)C(N)=S)cc1` (configuration not stated): the GI50 was more than 100 µM and the TGI is more than 100 µM.
For the compound `CC(C)[C@@]12C[C@@H](OC(=O)[C@H]3CO3)[C@@](C)(O1)[C@@H]1CC[C@@H](C)[C@H]1[C@@H]2OC(=O)/C=C/c1ccccc1`, the GI50 was 13.8 µM and the TGI was 28.5 µM.
For the compound `CC(=O)c1ccc(NC(=O)CSc2nnc(-c3cc(-c4ccc(C)cc4)nc4ccccc34)o2)cc1`, the GI50 is more than 100 µM and the TGI was more than 100 µM.
The compound `CCCCCCOc1ccc(C(=O)NOCc2ccccc2)cc1` gave a TGI of more than 100 µM.
Turning to `COc1ccc2nc3ccc(OC)cc3c(S(=O)(=O)Cc3ccc([N+](=O)[O-])cc3)c2c1`, the TGI was more than 100 µM.
Take `Cc1nc2sccn2c(=O)c1CCN1CCC(=C(c2ccc(F)cc2)c2ccc(F)cc2)CC1`: the GI50 was 14.3 µM and the TGI is 27.5 µM.
For `O=[N+]([O-])c1ccc(-c2nc(-c3ccccc3)c(-c3ccccc3)n2-c2ccccc2)cc1`, the GI50 is 3.54 µM and the TGI stood at 16.1 µM.
Compound `CCOC(=O)c1c(C)c2c(n1C)CCc1cn[nH]c1-2` came in with a TGI of more than 100 µM.
`COc1cc(C2c3cc4c(cc3OC(Nc3ccc(C(=O)O)cc3)C2C)OCO4)cc(OC)c1OC` (configuration not stated) came in with a TGI of more than 100 µM.
Regarding `COc1ccc(C2=NNC(=O)OC2c2ccccc2)cc1` (configuration not stated), the TGI is more than 100 µM.
Turning to `CSc1nc(-c2cc3c(c(SC)n2)CCCCC3)cc2c1CCCCC2`, the TGI is more than 100 µM.
On to `CCC(C)n1cc(C)c2c(C(=O)NCc3c(C)cc(C)[nH]c3=O)cc(Br)cc21` (configuration not stated), for which the GI50 was more than 100 µM and the TGI was more than 100 µM.
Take `COc1ccccc1-n1c(-c2cc(O)ccc2C)cn2c3c(=O)[nH]c(=O)n(C)c3nc12`: the GI50 is 4.82 µM and the TGI is more than 100 µM.
`Cc1cccc2c1Oc1ccccc1C2NC(=O)c1ccc([N+](=O)[O-])cc1` (configuration not stated) gave a TGI of more than 100 µM.
Turning to `CCCCCCCC/C=C/CCCCCCCCC1=NCCN1CCO`, the GI50 was 3.29 µM and the TGI was 11.3 µM.
Taken in the same sequence, the figures for `CCCCCCCC/C=C/CCCCCCCC1=NCC[N+]1(CCO)CCO` were 9.05 µM and 22.9 µM.
With `CC(C)(C)c1ccc(-c2nc3ccc([N+](=O)[O-])cc3c(=O)o2)cc1`, the TGI is more than 100 µM.
The compound `CCCn1c(SCC)c2ccccc2c1-c1nc(F)nc(F)n1` displayed a TGI of more than 100 µM.
As to `COc1ccc(/C=C2\C[C@H]3[C@@H]4CCC5=C[C@@H](N6CCCC6)CC[C@]5(C)[C@H]4CC[C@]3(C)[C@H]2O)cc1`, the TGI was 12.8 µM.
For the compound `COc1ccc(N=C(C)c2ccncc2)cc1`, the TGI is more than 100 µM.
Turning to `COc1cc2c(cc1OC)-c1cc3cc(OC)c(OC)cc3n1CC2`, the TGI was more than 100 µM.
In turn, `Cc1c(CCOC=O)c(=O)[nH]c2nncn12` returned a TGI of more than 100 µM.
`CC1(C)CC[C@]2(C)CC=C3[C@]4(C)CC[C@H]5C(C)(C)C(=O)CC[C@]5(C)[C@H]4CC[C@@]3(C)[C@H]2C1` came in with a TGI of more than 100 µM.
Turning to `CN(C)c1ccc(C(=C2C=CC(=[N+](C)C)C=C2)c2ccc(N(C)C)cc2)cc1` (tested in a mixture with another compound), the GI50 was 0.16 µM and the TGI worked out at 1.56 µM.
Regarding `COC1(OC)CC2C=C(S(=O)(=O)c3ccccc3)C1N(Cc1ccccc1)C2=O` (configuration not stated), the TGI was more than 100 µM.
`O=c1[nH]c(=O)n(C2CC(O)C(CO)O2)cc1OCCCc1ccccc1` (configuration not stated) showed a TGI of more than 100 µM.
Regarding `NC(CSC(c1ccccc1)(c1ccccc1)c1ccc(Cl)cc1)C(=O)O` (configuration not stated), the GI50 is 0.338 µM and the TGI was more than 79.9 µM.
On to `COc1cc(-c2oc3c(OC)c(O)c(OC)c(O)c3c(=O)c2OC)cc(O)c1OC`, for which the TGI was more than 100 µM.

The values are drawn from PubChem BioAssay (NCI).
